Laboratory results as given in a collection of fitness landscapes (doi:10.1016/j.celrep.2020.107928).
Over roughly 81,000 sequences, “one-hybrid fitness for binding parS DNA” has its median near -0.17; the highest 2% begin near 0.51. Some of the results follow.

B1: Caulobacter ParB omega fusion; a variant is named by its letters at X, in order, B8GW30 (parent)
chain: MESVVVGEPGMSEGRRGLGRGLSALLGEVDAAPAQAPGEQLGGSREAPIEILQRNPDQPRRTFREEDLEDLSNSIREKGVLQPILVRPSPDTAGEYQIVAGERAWRAAQRAGLKTVPIMVRELDDLAVLEIGIIENVQRADLNVLEEALSYKVLMEKFERTQENIAQTIGKSXSHVANXMRLLXLPDEVQSYLVSGELTAXHARAIAAAADPVALAKQIIEGGLSVRETEALARKAPNLSAGKSKGGRPPRVKDTDTQALESDLSSVLGLDVSIDHRGSTGTLTITYATLEQLDDLCNRLTRGI

Variants of: B1
Test: one-hybrid fitness for binding parS DNA (scaled: cognate 1, non-cognate 0); higher = stronger binding
Details: with parS DNA site
In short: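 Fitness is the rescaled log change in variant-to-wild-type read ratio, measured by Illumina sequencing of plasmids before and after bacterial one-hybrid selection. The scale puts cognate at 1 and non-cognate at 0. Selection of Caulobacter ParB libraries, four specificity codons randomised, took place in E. coli USO with a HIS3 reporter, site 19 bp from the promoter, over 48 hours at 37°C on M9-minus-histidine with 0.1 mM IPTG and 5 mM 3-AT.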

one-hybrid fitness for binding parS DNA, 0.368:
RMRF

one-hybrid fitness for binding parS DNA, 0.295:
RWIA

one-hybrid fitness for binding parS DNA, 0.393:
RYWY

one-hybrid fitness for binding parS DNA, 0.416:
RQCN

one-hybrid fitness for binding parS DNA, 0.265:
RCMF

one-hybrid fitness for binding parS DNA, 0.215:
WVSP

one-hybrid fitness for binding parS DNA, ≤ 0.2:
PTLY
INHT
DTPD
APMT
LTTF
KANS
NRYR
DSLT
VYVI
CHVT
LYHG
YGHL
RSFL
LPYA
EVKF
QHDI
KTHI
HTCL
QRYN
NVPG
TTWV
YNYC
KVFC
QTWA
HSHV
ALLI
QQND
SARP
TAYK
HANV
SAAF
EDAC
VVYI
TVFW
LHVG
QPSY
KLGM
IVYG
LGAC
PIVC
LILG
LGKS
HAGG
GMQG
LSNM
DTTH
QQLT
YHTR
SMMM
ESSI
VLPV
CGVE
PCMG
TRPM
GVQA
YWQS
ALAG
DPLI
RTNK
QVKH
RRPW
VEAV
WWYR
VRMV
MPTF
RHGI
YHQG
SATR
YSHK
RWLW
VRPT
CSIG
CKGT
QIRS
QNAM
GGWL
GIFT
QTSV
YEVL
NVHG
CTAT
LAQI
AQVT
THKC
RNDE
PMYV
SCAD
TRLQ
YPVC
NKII
YMKV
PLEN
QYLH
PLRN
WHGE
LVGT
NSYG
FRWS
KDNT
SNCY
WQTC
NTAF
RNHQ
TISK
RYEV
MPPP
PYGT
QPTL
MHWT
GWWS
EWRV
NYNR
PNAK
VFVS
PNTQ
SRHV
GDNL
HLVG
FMYR
TKSH
SDPV
LTTL
IALV
YQWR
HYMR
MRDA
LKNC
IGFC
QWMI
NGTL
DPPC
TCLY
TMTR
AHFS
LYGY
TRRL
WVDS
AEPV
AFQC
FNTR
TSVK
CFKS
AYAR
QMFY
WHYV

one-hybrid fitness for binding parS DNA, 0.213:
RIFH

one-hybrid fitness for binding parS DNA, 0.587:
RLSA
